# Test results reported in the supplement of paper PMC8728848.
# Some of the results follow.
# Experiments:
# Test in all cases: glycan array binding signal (z-score within array); higher = stronger binding
# Conditions in all cases: glycan notation: IUPAC condensed, linker removed
# [1] = biological target: Man(a1-3)[Man(a1-6)]Man(a1-6)[Man(a1-3)]Man
# Outline: (§1)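 From the Consortium for Functional Glycomics database, 3228 arrays were curated, keeping only those whose protein sequence was available. Binding is given as a within-array Z-score averaged across arrays sharing a protein sequence and across linkers. Negative Z-scores can be read as non-binding.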
# [2] = biological target: Man(a1-3)[Man(a1-6)]Man(a1-6)[Man(a1-3)]Man(b1-4)GlcNAc(b1-4)GlcNAc
# Outline: as §1
# [3] = biological target: Man(a1-3)[Man(a1-6)]Man(b1-4)GlcNAc(b1-4)GlcNAc
# Outline: as §1
# [4] = biological target: Man(a1-6)Man
# Outline: as §1
# [5] = biological target: Man(b1-4)GlcNAc
# Outline: as §1
# [6] = biological target: Neu5Ac(a2-3)Gal
# Outline: as §1
# [7] = biological target: Neu5Ac(a2-3)Gal(b1-3)GalNAc
# Outline: as §1
# [8] = biological target: Neu5Ac(a2-3)Gal(b1-3)GalNAc(b1-3)Gal(a1-4)Gal(b1-4)Glc
# Outline: as §1
# [9] = biological target: Neu5Ac(a2-3)Gal(b1-3)GalNAc(b1-3)Gal(b1-4)GlcNAc
# Outline: as §1
# [10] = biological target: Neu5Ac(a2-3)Gal(b1-3)GalNAc(b1-4)[Neu5Ac(a2-3)]Gal(b1-4)Glc
# Outline: as §1
# [11] = biological target: Neu5Ac(a2-3)Gal(b1-3)GalNAc6S
# Outline: as §1
# [12] = biological target: Neu5Ac(a2-3)Gal(b1-3)GlcNAc
# Outline: as §1
# [13] = biological target: Neu5Ac(a2-3)Gal(b1-3)GlcNAc(b1-3)Gal(b1-3)GlcNAc
# Outline: as §1
# [14] = biological target: Neu5Ac(a2-3)Gal(b1-3)GlcNAc6S
# Outline: as §1
# [15] = biological target: Neu5Ac(a2-3)Gal(b1-3)[Fuc(a1-4)]GlcNAc
# Outline: as §1
# [16] = biological target: Neu5Ac(a2-3)Gal(b1-3)[Fuc(a1-4)]GlcNAc(b1-3)Gal(b1-4)[Fuc(a1-3)]GlcNAc
# Outline: as §1
# [17] = biological target: Neu5Ac(a2-3)Gal(b1-3)[Neu5Ac(a2-3)Gal(b1-4)]GlcNAc
# Outline: as §1
# [18] = biological target: Neu5Ac(a2-3)Gal(b1-3)[Neu5Ac(a2-6)]GalNAc
# Outline: as §1
# [19] = biological target: Neu5Ac(a2-3)Gal(b1-4)Glc
# Outline: as §1
# [20] = biological target: Neu5Ac(a2-3)Gal(b1-4)GlcNAc
# Outline: as §1
# [21] = biological target: Neu5Ac(a2-3)Gal(b1-4)GlcNAc(b1-2)Man(a1-3)[GlcNAc(b1-2)Man(b1-4)GlcNAc(b1-2)Man(a1-6)]Man(b1-4)GlcNAc(b1-4)GlcNAc
# Outline: as §1
# [22] = biological target: Neu5Ac(a2-3)Gal(b1-4)GlcNAc(b1-2)Man(a1-3)[Neu5Ac(a2-6)Gal(b1-4)GlcNAc(b1-2)Man(a1-6)]Man(b1-4)GlcNAc(b1-4)GlcNAc
# Outline: as §1
# [23] = biological target: Neu5Ac(a2-3)Gal(b1-4)GlcNAc(b1-3)Gal(b1-3)GlcNAc
# Outline: as §1
# [24] = biological target: Neu5Ac(a2-3)Gal(b1-4)GlcNAc(b1-3)Gal(b1-4)GlcNAc
# Outline: as §1
# [25] = biological target: Neu5Ac(a2-3)Gal(b1-4)GlcNAc(b1-3)Gal(b1-4)GlcNAc(b1-3)Gal(b1-4)GlcNAc
# Outline: as §1
# [26] = biological target: Neu5Ac(a2-3)Gal(b1-4)GlcNAc(b1-3)Gal(b1-4)[Fuc(a1-3)]GlcNAc
# Outline: as §1
# [27] = biological target: Neu5Ac(a2-3)Gal(b1-4)GlcNAc(b1-6)[Gal(b1-3)]GalNAc
# Outline: as §1
# [28] = biological target: Neu5Ac(a2-3)Gal(b1-4)GlcNAc(b1-6)[Neu5Ac(a2-3)Gal(b1-3)]GalNAc
# Outline: as §1
# [29] = biological target: Neu5Ac(a2-3)Gal(b1-4)GlcNAc6S
# Outline: as §1
# [30] = biological target: Neu5Ac(a2-3)Gal(b1-4)[Fuc(a1-3)]GlcNAc
# Outline: as §1
# [31] = biological target: Neu5Ac(a2-3)Gal(b1-4)[Fuc(a1-3)]GlcNAc(b1-3)Gal
# Outline: as §1
# [32] = biological target: Neu5Ac(a2-3)Gal(b1-4)[Fuc(a1-3)]GlcNAc(b1-3)Gal(b1-4)GlcNAc
# Outline: as §1
# [33] = biological target: Neu5Ac(a2-3)Gal(b1-4)[Fuc(a1-3)]GlcNAc(b1-3)Gal(b1-4)[Fuc(a1-3)]GlcNAc(b1-3)Gal(b1-4)[Fuc(a1-3)]GlcNAc
# Outline: as §1
# [34] = biological target: Neu5Ac(a2-3)Gal(b1-4)[Fuc(a1-3)]GlcNAc(b1-6)[Gal(b1-3)]GalNAc
# Outline: as §1
# [35] = biological target: Neu5Ac(a2-3)Gal(b1-4)[Fuc(a1-3)]GlcNAc6S
# Outline: as §1
# [36] = biological target: Neu5Ac(a2-3)Gal6S(b1-4)GlcNAc
# Outline: as §1
# [37] = biological target: Neu5Ac(a2-3)Gal6S(b1-4)[Fuc(a1-3)]GlcNAc
# Outline: as §1
# [38] = biological target: Neu5Ac(a2-3)GalNAc
# Outline: as §1
# [39] = biological target: Neu5Ac(a2-3)GalNAc(b1-4)GlcNAc
# Outline: as §1
# [40] = biological target: Neu5Ac(a2-3)[GalNAc(b1-4)]Gal(b1-4)Glc
# Outline: as §1
# [41] = biological target: Neu5Ac(a2-3)[GalNAc(b1-4)]Gal(b1-4)GlcNAc
# Outline: as §1
# [42] = biological target: Neu5Ac(a2-3)[Neu5Ac(a2-6)]GalNAc
# Outline: as §1
# [43] = biological target: Neu5Ac(a2-6)Gal
# Outline: as §1
# [44] = biological target: Neu5Ac(a2-6)Gal(b1-4)Glc
# Outline: as §1
# [45] = biological target: Neu5Ac(a2-6)Gal(b1-4)GlcNAc
# Outline: as §1
binder,measurement,setting,value
Surfactant Protein D (Human); Neck + Carbohydrate Recognition Domain (NCRD) (Homo sapiens) (protein) MLLFLLSALVLLTQPLGYLEAEMKTYSHRTMPSACTLVMCSSVESGLPGRDRDGREGPRGEKGDPGLPGAAGQAGMPGQAGPVGPKGDNGSVGEPGPKGDTGPSGPPGPPGVPGPAGREGALGKQGNIGPQGKPGPKGEAGPKGEVGAPGMQGSAGARGLAGPKGERGVPGERGVPGNTGAAGSAGAMGPQGSPGARGPPGLKGDKGIPGDKGAKGESGLPDVASLRQQVEALQGQVQHLQAAFSQYKKVELFPNGQSVGEKIFKTAQFVKPFTEAQLLCTQAGGQLASPRSAAENAALQQLVVAKNEAAFLSMTDSKTEGKFTYPTGESLVYSNWAPGEPNDDGGSEDCVEIFTNGKWNDRACGEKRLVVCEF,glycan array binding signal (z-score),[1],3.08
same,glycan array binding signal (z-score),[2],4.68
same,glycan array binding signal (z-score),[3],1.08
same,glycan array binding signal (z-score),[4],0.063
same,glycan array binding signal (z-score),[5],0.329
same,glycan array binding signal (z-score),[6],-0.243
same,glycan array binding signal (z-score),[7],-0.171
same,glycan array binding signal (z-score),[8],-0.281
same,glycan array binding signal (z-score),[9],-0.261
same,glycan array binding signal (z-score),[10],-0.252
same,glycan array binding signal (z-score),[11],-0.228
same,glycan array binding signal (z-score),[12],-0.23
same,glycan array binding signal (z-score),[13],-0.198
same,glycan array binding signal (z-score),[14],-0.228
same,glycan array binding signal (z-score),[15],-0.281
same,glycan array binding signal (z-score),[16],0.1
same,glycan array binding signal (z-score),[17],-0.275
same,glycan array binding signal (z-score),[18],-0.246
same,glycan array binding signal (z-score),[19],-0.059
same,glycan array binding signal (z-score),[20],-0.267
same,glycan array binding signal (z-score),[21],-0.092
same,glycan array binding signal (z-score),[22],-0.264
same,glycan array binding signal (z-score),[23],-0.24
same,glycan array binding signal (z-score),[24],-0.21
same,glycan array binding signal (z-score),[25],-0.279
same,glycan array binding signal (z-score),[26],-0.259
same,glycan array binding signal (z-score),[27],-0.27
same,glycan array binding signal (z-score),[28],-0.162
same,glycan array binding signal (z-score),[29],-0.26
same,glycan array binding signal (z-score),[30],-0.275
same,glycan array binding signal (z-score),[31],-0.278
same,glycan array binding signal (z-score),[32],-0.174
same,glycan array binding signal (z-score),[33],-0.149
same,glycan array binding signal (z-score),[34],0.276
same,glycan array binding signal (z-score),[35],-0.241
same,glycan array binding signal (z-score),[36],-0.253
same,glycan array binding signal (z-score),[37],-0.254
same,glycan array binding signal (z-score),[38],-0.241
same,glycan array binding signal (z-score),[39],-0.281
same,glycan array binding signal (z-score),[40],-0.277
same,glycan array binding signal (z-score),[41],-0.237
same,glycan array binding signal (z-score),[42],-0.296
same,glycan array binding signal (z-score),[43],-0.239
same,glycan array binding signal (z-score),[44],-0.244
same,glycan array binding signal (z-score),[45],-0.27
